These results are taken from publication PMC12820563, “FoxP3 forms a head-to-head dimer in vivo and stabilizes its multimerization on adjacent microsatellites”.

Some of the results follow.

This assay has as its target T1, MBP-FoxP1dN (Mus musculus, UniProt P58462 326-579).
T1 sequence: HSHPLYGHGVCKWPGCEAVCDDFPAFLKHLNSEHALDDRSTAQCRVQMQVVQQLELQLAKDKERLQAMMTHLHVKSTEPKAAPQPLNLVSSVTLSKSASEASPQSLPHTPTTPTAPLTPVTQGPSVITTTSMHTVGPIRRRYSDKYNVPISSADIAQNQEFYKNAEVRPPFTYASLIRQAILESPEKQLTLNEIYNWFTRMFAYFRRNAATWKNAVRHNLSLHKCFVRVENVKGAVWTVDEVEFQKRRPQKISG
The assay can be described thus: PD-seq (MBP pull-down with sequencing); 20 mM Tris-HCl pH 7.5, 100 mM NaCl, 1.5 mM MgCl2, 0.4 uM protein, 0.1 uM dsDNA library, 30 min, room temperature, amylose pull-down; high values mean tight binding. As to conditions: protein: recombinant; tags: His6-MBP; chain copies: 2; dsDNA, one strand shown. Put shortly: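 A fragment of mouse FoxP3 or FoxP1 without its N-terminus, carrying a His6-MBP tag and produced in E. coli, was combined at 0.4 µM with a 0.1 µM degenerate double-stranded DNA library filled in with Klenow. The mixture sat for 30 min at room temperature in Tris pH 7.5 buffer containing NaCl and MgCl2. Protein–DNA complexes were captured on amylose resin, washed three times, and the DNA was freed with proteinase K, barcoded by PCR and sequenced on Illumina. Binding is expressed as reads-per-million enrichment of pull-down over input, with replicates pooled.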
On to “GATGATTGTTCTCCCAGCTGATGAATTGAGTTACTCGAGTAAACAAATTTTCCTAATCTTTCTGTTCAAGCGCCATCTAC”, for which the binding signal is 0.958 RPM ratio (pull-down/input).

Regarding “GATGATTGTTCTCCCAGCTGATGAATTCCCGTACTCGAGTAAACAAATTTTCCTAATCTTTCTGTTCAAGCGCCATCTAC”, the binding signal is 0.842 RPM ratio (pull-down/input).

Turning to “GATGATTGTTCTCCCAGCTGATGAATTGGGACTATCGAGTAAACAAATTTTCCTAATCTTTCTGTTCAAGCGCCATCTAC”, the binding signal was 0.879 RPM ratio (pull-down/input).

For “GATGATTGTTCTCCCAGCTGATGAATTAAAGCGCTCGAGTAAACAAATTTTCCTAATCTTTCTGTTCAAGCGCCATCTAC”, the binding signal was 0.953 RPM ratio (pull-down/input).

For the sequence “GATGATTGTTCTCCCAGCTGATGAATTATTCCATTCGAGTAAACAAATTTTCCTAATCTTTCTGTTCAAGCGCCATCTAC”, the binding signal is 1.1 RPM ratio (pull-down/input).

As to “GATGATTGTTCTCCCAGCTGATGAATTTATTGCTTCGAGTAAACAAATTTTCCTAATCTTTCTGTTCAAGCGCCATCTAC”, the binding signal was 1.21 RPM ratio (pull-down/input).

In the case of “GATGATTGTTCTCCCAGCTGATGAATTTCTGCCCTCGAGTAAACAAATTTTCCTAATCTTTCTGTTCAAGCGCCATCTAC”, the binding signal was 0.838 RPM ratio (pull-down/input).

For “GATGATTGTTCTCCCAGCTGATGAATTTAACGAGTCGAGTAAACAAATTTTCCTAATCTTTCTGTTCAAGCGCCATCTAC”, the binding signal is 0.819 RPM ratio (pull-down/input).

Consider “GATGATTGTTCTCCCAGCTGATGAATTAGGCCTTTCGAGTAAACAAATTTTCCTAATCTTTCTGTTCAAGCGCCATCTAC”, for which the binding signal was 0.852 RPM ratio (pull-down/input).

Turning to “GATGATTGTTCTCCCAGCTGATGAATTTAGTCGGTCGAGTAAACAAATTTTCCTAATCTTTCTGTTCAAGCGCCATCTAC”, the binding signal was 0.848 RPM ratio (pull-down/input).

For “GATGATTGTTCTCCCAGCTGATGAATTCCAGTACTCGAGTAAACAAATTTTCCTAATCTTTCTGTTCAAGCGCCATCTAC”, the binding signal is 0.857 RPM ratio (pull-down/input).

With “GATGATTGTTCTCCCAGCTGATGAATTGGGGGGGTCGAGTAAACAAATTTTCCTAATCTTTCTGTTCAAGCGCCATCTAC”, the binding signal is 0.753 RPM ratio (pull-down/input).

Take “GATGATTGTTCTCCCAGCTGATGAATTGCAGAGATCGAGTAAACAAATTTTCCTAATCTTTCTGTTCAAGCGCCATCTAC”: the binding signal is 1.03 RPM ratio (pull-down/input).

As to “GATGATTGTTCTCCCAGCTGATGAATTGGTATCCTCGAGTAAACAAATTTTCCTAATCTTTCTGTTCAAGCGCCATCTAC”, the binding signal was 1.04 RPM ratio (pull-down/input).

On to “GATGATTGTTCTCCCAGCTGATGAATTCACTCGCTCGAGTAAACAAATTTTCCTAATCTTTCTGTTCAAGCGCCATCTAC”, for which the binding signal was 0.819 RPM ratio (pull-down/input).

Consider “GATGATTGTTCTCCCAGCTGATGAATTTCTAGCGTCGAGTAAACAAATTTTCCTAATCTTTCTGTTCAAGCGCCATCTAC”, for which the binding signal is 0.92 RPM ratio (pull-down/input).

“GATGATTGTTCTCCCAGCTGATGAATTTACTAGATCGAGTAAACAAATTTTCCTAATCTTTCTGTTCAAGCGCCATCTAC”: the binding signal is 1.28 RPM ratio (pull-down/input).

Consider “GATGATTGTTCTCCCAGCTGATGAATTGTGATTCTCGAGTAAACAAATTTTCCTAATCTTTCTGTTCAAGCGCCATCTAC”, for which the binding signal was 1.22 RPM ratio (pull-down/input).

In the case of “GATGATTGTTCTCCCAGCTGATGAATTTTGGCGGTCGAGTAAACAAATTTTCCTAATCTTTCTGTTCAAGCGCCATCTAC”, the binding signal was 0.799 RPM ratio (pull-down/input).

Regarding “GATGATTGTTCTCCCAGCTGATGAATTGACATTTTCGAGTAAACAAATTTTCCTAATCTTTCTGTTCAAGCGCCATCTAC”, the binding signal is 1.4 RPM ratio (pull-down/input).

For the sequence “GATGATTGTTCTCCCAGCTGATGAATTGTTTGTGTCGAGTAAACAAATTTTCCTAATCTTTCTGTTCAAGCGCCATCTAC”, the binding signal was 2.77 RPM ratio (pull-down/input).

On to “GATGATTGTTCTCCCAGCTGATGAATTGTTTGGCTCGAGTAAACAAATTTTCCTAATCTTTCTGTTCAAGCGCCATCTAC”, for which the binding signal was 1.59 RPM ratio (pull-down/input).

In the case of “GATGATTGTTCTCCCAGCTGATGAATTTAGTGTCTCGAGTAAACAAATTTTCCTAATCTTTCTGTTCAAGCGCCATCTAC”, the binding signal is 1.04 RPM ratio (pull-down/input).

For “GATGATTGTTCTCCCAGCTGATGAATTCTCATCATCGAGTAAACAAATTTTCCTAATCTTTCTGTTCAAGCGCCATCTAC”, the binding signal was 0.966 RPM ratio (pull-down/input).

As for “GATGATTGTTCTCCCAGCTGATGAATTGAGGTTCTCGAGTAAACAAATTTTCCTAATCTTTCTGTTCAAGCGCCATCTAC”, the binding signal is 0.826 RPM ratio (pull-down/input).

Consider “GATGATTGTTCTCCCAGCTGATGAATTAGTTTGGTCGAGTAAACAAATTTTCCTAATCTTTCTGTTCAAGCGCCATCTAC”, for which the binding signal is 0.938 RPM ratio (pull-down/input).

On to “GATGATTGTTCTCCCAGCTGATGAATTTGCTAGTTCGAGTAAACAAATTTTCCTAATCTTTCTGTTCAAGCGCCATCTAC”, for which the binding signal was 1.05 RPM ratio (pull-down/input).

In the case of “GATGATTGTTCTCCCAGCTGATGAATTTCCTCTCTCGAGTAAACAAATTTTCCTAATCTTTCTGTTCAAGCGCCATCTAC”, the binding signal was 0.796 RPM ratio (pull-down/input).

For “GATGATTGTTCTCCCAGCTGATGAATTTTTGCTGTCGAGTAAACAAATTTTCCTAATCTTTCTGTTCAAGCGCCATCTAC”, the binding signal is 1.59 RPM ratio (pull-down/input).

As to “GATGATTGTTCTCCCAGCTGATGAATTTTCACATTCGAGTAAACAAATTTTCCTAATCTTTCTGTTCAAGCGCCATCTAC”, the binding signal was 0.987 RPM ratio (pull-down/input).

Regarding “GATGATTGTTCTCCCAGCTGATGAATTTTCCTCTTCGAGTAAACAAATTTTCCTAATCTTTCTGTTCAAGCGCCATCTAC”, the binding signal was 0.86 RPM ratio (pull-down/input).

Turning to “GATGATTGTTCTCCCAGCTGATGAATTGTATCCCTCGAGTAAACAAATTTTCCTAATCTTTCTGTTCAAGCGCCATCTAC”, the binding signal is 1.09 RPM ratio (pull-down/input).
